Assay results from the supplement of paper PMC12645437, “Orthogonal IMiD-Degron Pairs Induce Selective Protein Degradation in Cells” (ACS Chemical Biology, 2025).
The other results are listed elsewhere or left out.

target: no compound (DMSO); experiment: log2 fold change of degron read counts, EGFP-low vs EGFP+ sorted cells; higher = lower degron-EGFP level without compound (poor expression or instability); conditions: compound: DMSO control; 18 h
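Also: jurkat cells carrying a lentiviral library of mutant zinc finger degrons fused to EGFP plus mCherry, mCherry+ cells FACS sorted, degron abundance counted by next-generation sequencing.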

Sequence | log2 fold change of degron read counts
FDCPICGRRFTQKGNLLRHIKL | -0.262
FICSVCGHTFTQKGNLLRHIKL | -1.36
FYCNQCGASFTQKGNLLRHIKL | -0.0474
FVCNQCGANFTQKGNLLRHIKL | -1.51
FSCNVCGAKFTQKGNLLRHIKL | -0.594
LACPICGFLCTQKGNLLRHIKL | 1.48
FDCPQCGARFTQKGNLLRHIKL | -0.899
FQCPQCGAAFTQKGNLLRHIKL | -0.83
FTCSVCGHTFTQKGNLLRHIKL | -1.28
FGCNQCGRGFTQKGNLLRHIKL | 0.709
FCCEICGADFTQKGNLLRHIKL | -2.47
FMCDVCGADFTQKGNLLRHIKL | -1.1
FECEICGAEFTQKGNLLRHIKL | -2.6
LRCNQCGFACTQKGNLLRHIKL | 0.953
